Assay results from ChEMBL document CHEMBL4888484, “Replenishing the malaria drug discovery pipeline: Screening and hit evaluation of the MMV Hit Generation Library 1 (HGL1) against asexual blood stage Plasmodium falciparum ,using a nano luciferase reporter read-out” (2022).
Among all 4,800 compounds or so, about 420 (8.8%) showed an effect of 50% or more. The list shows a part of the results.

These molecules were tested on Plasmodium falciparum (assay: Confirmatory screen in NF54 nanoGlo assay, in single point, at 2uM, 72h). Details: timepoint 72 hour.
Assay type: functional, Erythrocyte

| Compound | % Inhibition |
| --- | --- |
| CCC1(CC)CN(C(=O)c2ccn(C)c(=O)c2)c2ccccc21 | 2% |
| Nc1nc(N2CCN(c3ccc(F)c(Cl)c3)CC2)cc([C@H]2C[C@@H](N)C2)n1 | 32% |
| CCOc1cccc(COC(=O)c2cc(C#N)cn2C)n1 | -3% |
| CC1(C)Cc2nc3ccccc3c(NCc3ccccc3)c2[C@@H](O)C1 | 44% |
| Cc1ccc([C@H](c2c[nH]c3ccccc23)N(C)C(=O)C(C)C)cc1 | 30% |
| CNc1nc(Nc2ccc3c(c2)OCCO3)nc2ccccc12 | 95% |
| COCCCNC(=O)C1CCN(c2c(C)n(-c3ccccc3)c(=O)n(CC(C)C)c2=O)CC1 | -2% |
| O=C(Nc1cccc(Cl)c1)Nc1cccc(-c2cnc3n2CCC3)c1 | 46% |
| CC(=O)Nc1ccc(S(=O)(=O)NCc2ccc(C(=O)NC3CCC(C)CC3)cc2)cc1 (stereo not drawn) | -5% |
| O=C(NC1CCCOC1)NC1CCCOc2c1ccc1ccccc21 (stereo not drawn) | -3% |
| O=C(NC1CCCCC1)c1cc2c(Cl)ccc3c2n1CCO3 | -10% |
| Cc1c2c(=O)n(-c3nc4ccccc4s3)n(Cc3ccccc3)c2cc(=O)n1Cc1ccc2c(c1)OCO2 | 17% |
| COCc1nncn1C1CN(C(=O)Cc2ccc(OC)c(OC)c2)C1 | -9% |
| COc1ccc(N2CCN(Cc3c(O)nc(O)c(C#N)c3C)CC2)cc1 | -3% |
| Cc1c(-c2ccccc2Br)[nH]c2cc3c(cc2c1=O)OCCO3 | -13% |
| O=C(N[C@@H](N1CCCC1)C(Cl)(Cl)Cl)c1ccc(Cl)cc1 | -13% |
| Brc1ccc2c(c1)c1cc(Br)cc(Br)c1n2CN1CCOCC1 | -17% |
| CC(=O)N(C1CCOCC1)[C@H]1CCCN(C(=O)Cc2cccnc2)C1 | -13% |
| CCCCn1c(N)c(N(Cc2ccccc2OC)C(=O)c2ccoc2C)c(=O)[nH]c1=O | -5% |
| O=C(Cc1ccc(F)cc1F)N1CCc2[nH]nc(C(=O)N3CCN(c4ccccc4)CC3)c2C1 | 3% |
| CN(C)CCCNc1nc(N2CCCC2)c2c(c1C#N)CCN(C)C2 | 1% |
| C[C@H](Nc1nc(N2CCCCC2)nc2ccccc12)c1ccccc1 | -1% |
| CC(C)(C)OC(=O)Cn1cc(CO)nn1 | 1% |

| Compound | % Inhibition |
| --- | --- |
| COc1cccc(-c2noc3nc(C)cc(C(=O)NCCCn4ccc(C)n4)c23)c1 | 5% |
| c1coc([C@H](CNC2CCCC2)N2CCCC2)c1 | -4% |
| CCCOc1ccc(Cl)c(CN2OCC(C)(C)C2=O)c1 | -7% |
| COc1cc2c(cc1Cl)-n1cccc1C1(CCNCC1)N2 | -8% |
| C[C@H]1CCCN(C(=O)CNC(=O)Cc2ccccc2)CC1 | -9% |
| O=C1NC(=O)[C@@H]2CN(C(=O)[C@@H]3CCO[C@H]3c3ccc(Cl)c(F)c3)C[C@H]12 | 2% |
| COc1cccc(NC(=O)N2C[C@@H]3C[C@H](NS(C)(=O)=O)[C@H]2C3)c1 | 0% |
| C[C@@H](CO)NC(=O)Nc1cc(Br)c(F)cc1Cl | -3% |
| Cc1cc(C)n(CCC(=O)N2CC[C@H](c3nc(C4CCOCC4)no3)C2)n1 | -1% |
| CCOC(=O)[C@@H]1C(=O)Nc2cc(OC)ccc21 | 6% |
| O=C(O)Cc1cccc(NC(=O)C2C3Cc4ccccc4C32)c1 (stereo not drawn) | -1% |
| Cc1cc(-c2ccccc2)c(C#N)c(=O)n1C(=O)c1ccc(C#N)cc1 | 3% |
| CC(C)NC(=O)CN(C)S(=O)(=O)c1ccc(Br)cc1 | -15% |
| CCN(CC)c1ccc(C(=O)C(F)(F)F)c(O)c1 | -8% |
| C=CCOCC(O)CN(Cc1c(-c2ccccc2)noc1N1CCCCC1C)CC1CCCO1 (stereo not drawn) | 4% |
| CCC1(C)NC(=O)N(CC(O)CN2C(=O)c3ccccc3C2=O)C1=O (stereo not drawn) | -5% |
| CCc1cccc2c(C3=CCN(C(=O)NC[C@H]4COCCO4)CC3)c[nH]c12 | 3% |
| Cc1cc(C)cc(-n2cc(C(=O)NCCCc3ccccc3)nn2)c1 | 0% |
| Cc1cc(Nc2ccc(CN3CCCC3=O)cc2)nc(C2CC2)n1 | -7% |
| CCOc1ccc2c(n1)CCN(C(=O)c1ccsc1)C2 | -12% |
| CCN1C(=O)Cc2cc(NC(=O)c3ccc(Br)o3)ccc21 | -5% |
| Cc1nc(CN(C)C(=O)c2ccccc2Nc2cccc(C)c2C)cs1 | 0% |
| OC(CC(Nc1ccc(Cl)cc1)c1ccccc1)c1ccccc1 (stereo not drawn) | -8% |

| Compound | % Inhibition |
| --- | --- |
| Cc1occc1C(=O)NCCCn1ncc2c(C)cccc21 | 0% |
| COc1ccc(OC)c(NC(=O)CN2CCc3[nH]c4ccc(F)cc4c(=O)c3C2)c1 | 72% |
| CN(C)c1nc(CN2CCC(CO)CC2)ns1 | 1% |
| CC(C)(C)c1ccc(NC(=O)c2ccnnc2)c(O)c1 | -8% |
| CC(C)OC1CC(Nc2cccc(CO)c2)C1 (stereo not drawn) | 2% |
| COc1ccsc1CNc1ccc2[nH]ncc2c1 | 7% |
| Cc1c2c(C(F)(F)F)cc(=O)n(CCC(=O)Nc3ccc4c(c3)OCCO4)c2nn1C | 1% |
| Cc1c(S(=O)(=O)N2CCC(C)(C(=O)NCc3ccc(F)cc3)CC2)cnn1C(F)F | 1% |
| C[C@@H](c1cc(Cl)ccc1Cl)n1nccc1NC(=O)c1ccoc1 | -7% |
| Cc1ccc(Nc2c(-c3ccco3)nc3nc(C)cc(C)n23)cc1 | -1% |
| Cc1ccc(C(=O)N2CCCC23CCC3)nn1 | -11% |
| CS(=O)(=O)CCOc1cccc(NCc2cocn2)c1 | -8% |
| Cc1cc(C(=O)N2CCC3(CCNCC3)CC2)ccc1F | 1% |
| O=C(C[C@H]1CCOC1)Nc1cccc(F)c1 | -13% |
| CS(=O)(=O)n1cnc2cc(F)c(F)cc21 | -5% |
| Cc1ccc(NC(=O)C2CC2c2ccccc2)cc1NC(=O)C1CC1c1ccccc1 (stereo not drawn) | -2% |
| CCCNCc1cc(Br)ccc1OCC(N)=O | -6% |
| CC(C)CC[C@@H](CCNCCN(C)C)c1ccc(Cl)cc1 | 96% |
| CC(C)NC[C@H]1COCc2nc3ccccc3n21 | -15% |
| O=C(Nc1ccc(-c2nc3cnccc3o2)c(Cl)c1)c1sc2ccccc2c1Cl | -5% |
| COc1ccc(S(=O)(=O)N[C@H]2CCCc3cn(CC(F)(F)F)nc32)cc1 | 11% |
| Clc1ccc(C[n+]2ccc(-c3nc4ccccc4o3)cc2)c(Cl)c1 | 58% |
